The source of these data is patent US20190352411A1 (ALLIGATOR BIOSCIENCE, published 2019).

The Kd is the concentration at which binding is half-saturated.

Test [1] addresses T1, recombinant human OX40 (R&D #1493-CD) (human, UniProt P43489 29-216, limits assumed).
T1 construct: Coated on ELISA plates
T1 sequence (looked up): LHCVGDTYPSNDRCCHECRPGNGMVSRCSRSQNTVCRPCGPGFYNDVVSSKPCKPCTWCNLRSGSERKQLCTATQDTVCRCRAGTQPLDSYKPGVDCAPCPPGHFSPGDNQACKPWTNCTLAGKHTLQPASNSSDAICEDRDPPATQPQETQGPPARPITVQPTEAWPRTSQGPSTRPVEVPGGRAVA
In words: ELISA, coated OX40. As for the experimental part:
(§1) Binding to TNFR superfamily members for which ELISA methods had already been established (CD40 and OX40) was evaluated to detect potential propensity to cross react to non-target proteins.
(§2) ELISA plates (Greiner #655074) were coated with 50 μl/well of recombinant human OX40 (R&D #1493-CD), CD40-Fc (Ancell #504-820) or CD137 (R&D #838-4B) diluted to a final concentration of 0.5 μg/ml in PBS for 1 h at 37° C. or overnight at 4° C. Plates were washed with PBS+0.05% TWEEN20 (PBST), followed by block with PBST+1% bovine serum albumin (BSA). Antibody samples were prepared as serial 1/10 dilutions from 10-0.01 μg/ml in PBST+1% BSA and incubated for 1 h in room temperature, followed by detection using a horse radish peroxidase-conjugated anti-human kappa light chain antibody (AbD Serotec # STAR127P) and developed using SuperSignal ELISA Pico Chemiluminescent substrate (Pierce ThermoScientific #37069).
A general note: An ELISA detects its analyte on a solid surface through an enzyme-linked reagent.

For test [2], the target named is T2, CD40-Fc (Ancell #504-820) (human, UniProt P25942 fragment).
T2 construct: Coated on ELISA plates; not shown: Fc part of the commercial fusion protein; not described
T2 sequence (P25942 21-193 limits assumed): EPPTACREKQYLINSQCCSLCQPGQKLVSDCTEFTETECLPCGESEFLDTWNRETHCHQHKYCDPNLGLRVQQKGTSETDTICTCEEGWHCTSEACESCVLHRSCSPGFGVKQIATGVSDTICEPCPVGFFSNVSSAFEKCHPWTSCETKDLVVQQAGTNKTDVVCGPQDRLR
Put plainly: ELISA, coated CD40-Fc. As for the experimental part:
as §1, §2

For test [3], the target named is T3, human FcγRI (R&D Systems #1257-FC-050) (human, UniProt P12314 16-288).
T3 construct: Soluble analyte in the Octet assay
T3 sequence (P12314 16-288 limits assumed): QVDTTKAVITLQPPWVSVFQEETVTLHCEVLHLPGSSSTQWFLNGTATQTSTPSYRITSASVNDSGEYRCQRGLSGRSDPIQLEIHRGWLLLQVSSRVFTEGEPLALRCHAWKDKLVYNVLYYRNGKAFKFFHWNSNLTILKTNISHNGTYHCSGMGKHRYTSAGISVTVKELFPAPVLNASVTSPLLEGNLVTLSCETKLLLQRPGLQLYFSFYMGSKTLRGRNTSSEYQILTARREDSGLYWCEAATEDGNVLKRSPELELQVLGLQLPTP
Put plainly: Octet (BLI), antibody captured on FAB2G tips, soluble FcγR as analyte, 1:1 model. The text has this:
(§3) The processed data was fitted using a 1:1 Langmuir binding model with X² as a measurement of fitting accuracy.
(In general: BLI is a label-free optical method that tracks binding on a fibre tip over time.)

The target of test [4] is T4, human FcγRIIa (R&D Systems #1330-CD-050) (human, UniProt P12318 36-218, limits assumed).
T4 construct: Soluble analyte in the Octet assay
T4 sequence (looked up): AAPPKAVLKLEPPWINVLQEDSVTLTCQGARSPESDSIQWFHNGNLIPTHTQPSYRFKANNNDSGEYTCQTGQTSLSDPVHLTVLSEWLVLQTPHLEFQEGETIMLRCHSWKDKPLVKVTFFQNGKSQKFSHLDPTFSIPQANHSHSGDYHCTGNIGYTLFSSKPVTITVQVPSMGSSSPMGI
The test is described as above.
From the text: as §3

For test [5], the target named is T5, human FcγRIIb (R&D Systems #1460-CD-050) (human, UniProt P31994 46-217, limits assumed).
T5 construct: Soluble analyte in the Octet assay
T5 sequence (looked up): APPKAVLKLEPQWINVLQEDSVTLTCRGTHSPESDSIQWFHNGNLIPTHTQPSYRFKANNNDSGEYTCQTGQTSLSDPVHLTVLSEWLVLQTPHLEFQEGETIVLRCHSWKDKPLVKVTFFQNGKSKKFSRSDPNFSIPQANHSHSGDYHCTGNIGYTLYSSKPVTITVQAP
The description is as above.
From the text: as §3

B1: 2674/2675 (antibody, human IgG4 S228P, kappa)
heavy: EVQLLESGGGLVQPGGSLRLSCAASGFNFGYSYMSWVRQAPGKGLEWVSSIGSTSSHTYYADSVKGRFTISRDNSKNTLYLQMNSLRAEDTAVYYCARVYSSPGIDYWGQGTLVTVSSASTKGPSVFPLAPCSRSTSESTAALGCLVKDYFPEPVTVSWNSGALTSGVHTFPAVLQSSGLYSLSSVVTVPSSSLGTKTYTCNVDHKPSNTKVDKRV[human IgG4 Fc with S228P (EU numbers) not listed]
light: DIQMTQSPSSLSASVGDRVTITCRASQSIGSTLNWYQQKPGKAPKLLIYGASSLQSGVPSRFSGSGSGTDFTLTISSLQPEDFATYYCQQYYTWVPFTFGQGTKLEIKRTVAAPSVFIFPPSDEQLKSGTASVVCLLNNFYPREAKVQWKVDNALQSGNSQESVTEQDSKDSTYSLSSTLTLSKADYEKHKVYACEVTHQGLSSPVTKSFNRGEC
For B1, the binding result in test [1] and in test [2] was “no binding (tested: 10 µg/ml highest concentration tested)” in each case. The dissociation constant Kd in test [3] was found to be 2.11 nM; in test [4], 1000 nM; in test [5] it was 779 nM.
